# The whole screen tested about 320,000 compounds, of which about 200 (0.062%) were called active. This list was built around the results that the source calls inconclusive (neither active nor inactive); the mix of calls is not that of the screen. Calls follow the shape of the dose curve; as a rule, active = well fitted activation curve with a large enough effect; inconclusive = small, poorly fitted or top-dose-only effect; inactive = no such curve, though single readings can be large or run the other way. No potency is given beside an inconclusive call; the fits are too rough.
# Assay: qHTS assay for re-activators of p53 using a Luc reporter; also: nearly all actives have a fitted effect of over 45% in size; as to activity change, positive = activation: % of control where 0% means no effect
# Conditions: H1299 p53-A138V BP100-luciferase reporter, luminescence, 24 h; series mostly up to 92.2 µM; activity change, positive = activation: at the top concentration
# Summary of the method: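 H1299 (p53-null), stable ts p53-A138V + BP100-Luc; 1000 cells/well, Opti-MEM/10% FBS; cpd 4 pt, 1:5; 24 h, 37 deg C, 5% CO2; detection reagent 10 min RT; luminescence.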
# Potency is read from the fitted curve at half-maximal effect; tags tell the direction and shape of the fitted curve.
SMILES,Potency,"activity change, positive = activation"
COc1ccc(/C=C2\SC(=O)N(CCNC(=O)CCS(=O)(=O)c3ccc(C)cc3)C2=O)cc1,"inconclusive [activator, partial curve, poor fit]",
COc1ccc(C2=NN(S(C)(=O)=O)C(c3ccc4nccnc4c3)C2)cc1 (stereo not given),"inconclusive [activator, full curve, poor fit]",
N/C(Cc1ccc(Cl)cc1)=N\OC(=O)c1ccccc1,,inactive: 8.9%
Oc1ccccc1/C=N/Nc1nccnc1Cl,"inconclusive [activator, partial curve, poor fit]",
O=C(CC(Nc1ccccc1Cl)C(=O)OCC(=O)c1cccs1)c1ccccc1 (stereo not given),"inconclusive [activator, partial curve, poor fit]",
c1ccc(CCc2nc(-c3ccncc3)no2)cc1,"inconclusive [activator, partial curve, poor fit]",
COCCn1c(C)cc(C(=O)CSc2ccc3ccccc3n2)c1C,"inconclusive [activator, partial curve, poor fit]",
COc1ccc(C(CNC(=O)c2cccc(S(=O)(=O)N(C)c3ccccc3)c2)N2CCCC2)cc1 (stereo not given),"inconclusive [activator, single point]",
COc1ccc(-c2csc(NC(=O)c3ccco3)n2)cc1,"inconclusive [activator, full curve, poor fit]",
COc1ccc(-c2nc(-c3cccnc3)no2)cc1,"inconclusive [activator, full curve, poor fit]",
O=C(COc1ccc(Cl)cc1Cl)Nc1ccc(C(=O)Nc2ccccc2C(=O)O)cc1,"inconclusive [activator, single point]",
COC(=O)c1sc(NC(=S)NC(=O)c2ccccc2Cl)nc1C,"inconclusive [activator, partial curve, poor fit]",
COc1ccc(-c2csc(C)n2)cc1,"inconclusive [activator, full curve, poor fit]",
CCNc1nc(NCC)nc(N/N=C/c2ccc(OC)cc2)n1,,inactive: -3.4%
Oc1cc(O)cc(/C=C/c2ccc(O)c(O)c2)c1,"inconclusive [activator, full curve, poor fit]",
Cc1cnc(NC(=O)C2CCCC2)s1,"inconclusive [activator, single point]",
Cc1ccc2c(c1)-n1c(nc3ccc(C)cc3c1=O)C(Cc1ccccc1)NC2=O (stereo not given),,inactive: -5.54%
Cc1ccccc1S(=O)(=O)NC1OC(=O)C(Oc2ccccc2)=C1Br (stereo not given),,inactive: 1.35%
CC(=O)Nc1ccccc1C(=O)C(=O)Nc1cccc(C(=O)NC2CC2)c1,"inconclusive [activator, partial curve, poor fit]",
C=CCc1c(C)nc(-c2ccccc2)nc1N/N=C(\C)c1ccc(N)cc1,,inactive: 14.1%
CCOC(=O)c1c(NC(=S)N2CCCCC2)sc2c1CCN(C(=O)OCC)C2,,inactive: -14.8%
C/C(=N\NC(=O)C1COc2ccccc2O1)c1cc2ccccc2o1 (stereo not given),,inactive: 2.23%
COc1ccc(C(=O)Nc2ccc(Cl)cc2F)cc1S(=O)(=O)N1CCCC1,,inactive: -1.45%

SMILES,Potency,"activity change, positive = activation"
O=C1OC(Cc2ccccn2)C(=O)C1=C1SCCS1 (stereo not given),"inconclusive [activator, partial curve, poor fit]",
COc1ccc(C(=O)CSc2n[nH]c(=O)n2Cc2ccco2)cc1,,inactive: -0.37%
O=C(Nc1ccc2ccccc2c1)c1cnccn1,"inconclusive [activator, full curve, poor fit]",
Cc1ccc(-c2nnc(NC(=O)c3ccc([N+](=O)[O-])o3)o2)c(C)c1,"inconclusive [activator, single point]",
CC(C)N(Cc1cnn(C)c1)C(=O)C1CCC(=O)N(CCc2cccc(F)c2)C1 (stereo not given),"inconclusive [activator, single point]",
CC1(C)CC(=O)C=C(Nc2ccc(OCC(F)(F)C(F)F)cc2)C1,"inconclusive [activator, full curve, poor fit]",
O=C1[C@@H]2[C@H](C(=O)N1O)[C@H]1C=C[C@@H]2C1,"inconclusive [activator, single point]",
Cc1noc(C)c1C(=O)OCC(=O)c1cc(C)n(Cc2ccccc2Cl)c1C,"inconclusive [activator, partial curve, poor fit]",
CCOC(=O)c1ccc(COC(=O)c2cc3ccccc3oc2=O)o1,"inconclusive [activator, partial curve, poor fit]",
Nc1nc(SCc2ccccc2)ns1,"inconclusive [activator, partial curve]",
O=C(CSc1ccccc1C(=O)O)c1ccccc1,"inconclusive [activator, partial curve, poor fit]",
Cc1nc(SCc2ccccc2)nc2c1CCC2,"inconclusive [activator, partial curve, poor fit]",
Cc1nc2ccccc2c(=O)n1NC(=O)c1ccco1,,inactive: 5.33%
CCSc1nnc(NC(=O)c2ccccc2)s1,"inconclusive [activator, partial curve, poor fit]",
Cc1[nH]c2ccccc2c1/C=C/C(=O)c1ccccc1,,inactive: 25%
COc1ccc(C2C=C(c3ccccc3)Nc3nnnn32)cc1 (stereo not given),"inconclusive [activator, partial curve, poor fit]",
CC(=O)Oc1ccc(-c2ccc(C(=O)NCCc3ccc(S(N)(=O)=O)cc3)cc2)cc1,,inactive: 7.78%
CC(SCc1ccccc1)C(=O)Nc1ccccc1F (stereo not given),"inconclusive [activator, single point]",
CCC(C)c1ccc(NC(=S)NC2CCN(Cc3ccccc3)CC2)cc1 (stereo not given),"inconclusive [activator, full curve, poor fit]",
CN(C)c1ccc(/C=N/NC2=NS(=O)(=O)c3ccccc32)cc1,,inactive: 3.09%
COc1ccc2[nH]c3c(=O)n(CCc4ccccc4)cnc3c2c1,,inactive: 3.61%
Cc1ccc(S(=O)(=O)N2CCN(C(=O)COC(=O)/C=C/c3ccccc3)CC2)c(C)c1,"inconclusive [activator, single point]",

# — PubChem BioAssay AID504706 (National Center for Advancing Translational Sciences (NCATS), 2011)
